Here are results for 48 compounds from PubChem BioAssay AID1508642 (National Center for Advancing Translational Sciences (NCATS), 2021).

Hit rate of the full screen: of about 43,000 compounds, about 200 (0.47%) were called active. Inconclusive results (about 12%) are left out. Calls come from the whole dose curve; as a rule, active = well fitted cell-killing curve with a large enough effect; inconclusive = small, poorly fitted or top-dose-only effect, or effect the other way; inactive = flat fitted curve, though single readings scatter. The list shows a part of the results.
% is set by controls: 0 for no effect and ±100 for the full control effect.

This assay in a line: Cell viability qHTS assay in S16 Pmp22-F2sN cells. Note: nearly all actives have a fitted effect of over 65% in size. Particulars: S16 Pmp22-F2sN Schwann cells (luciferase reporters placed in the Pmp22 gene) viability, CellTiter-Glo, 24 h; series mostly up to 57.5 µM; activity change, negative = cytotoxicity: at the top concentration. In a few lines: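 Rat S16 Schwann reporter line, 24 h treatment with library compounds delivered at 23 nL per well. Cell viability by CellTiter-Glo luminescence.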
In general terms: In qHTS, concentration-response curves come from the screen itself.
Turning to `Cc1cc(C)cc(NC(=O)Cn2c3ncccc3c(=O)n2-c2ccc(C)c(C)c2)c1`, the “activity change, negative = cytotoxicity” value was inactive: -7.52%.

As to `Cc1ccc(CSc2ncc(Cl)c(C(=O)Nc3sc4c(c3C(N)=O)CCCC4)n2)cc1`, the “activity change, negative = cytotoxicity” value was inactive: 3.69%.

With `O=C(Cn1cnc2nc3c(cc2c1=O)CCCC3)N1CCN(c2ccccc2)CC1`, the “activity change, negative = cytotoxicity” value is inactive: -8.65%.

For the compound `Cc1ccc(C(=O)COC(=O)CCC(=O)Nc2ccc(Oc3cc(C)ccc3C(C)C)cc2)cc1`, the “activity change, negative = cytotoxicity” value is inactive: 6.38%.

Take `CCc1ccc(C2=NN(CCC(=O)NCCc3ccc(Cl)cc3)C(=O)CC2)cc1`: the “activity change, negative = cytotoxicity” value is inactive: -8.41%.

As to `Cc1ccc2c(c1)-c1c(cnn1CC(=O)Nc1ccccc1C#N)CO2`, the “activity change, negative = cytotoxicity” value was inactive: -17.3%.

In the case of `CCOC(=O)c1nnc2c(-c3ccc(Cl)cc3)c(C)nn2c1C`, the “activity change, negative = cytotoxicity” value is inactive: 28.3%.

In the case of `Cc1c(C(=O)NCCN(C)C)sc2nc3n(c(=O)c12)CCC3`, the “activity change, negative = cytotoxicity” value is inactive: 3.88%.

In the case of `O=C(NCC(c1ccccc1)c1ccccc1)c1nn(-c2ccccc2F)nc1CO`, the “activity change, negative = cytotoxicity” value is inactive: -1.03%.

Turning to `Cc1ccc(CCNC(=O)CCSCc2ccccc2Cl)cc1`, the “activity change, negative = cytotoxicity” value was inactive: 18.4%.

Consider `CCCn1c2ccccc2c2cnn(CC(=O)NC(CCSC)C(=O)OC)c(=O)c21` (stereo not drawn), for which the “activity change, negative = cytotoxicity” value was inactive: 1.94%.

`Cc1ccc2c(c1)c(=O)c1ccccc1n2CCCC(=O)Nc1c(F)cccc1F`: the “activity change, negative = cytotoxicity” value is inactive: 3.28%.

`CN(Cc1ccccc1)C(=O)c1cn(C)c2ccc(S(=O)(=O)N(C)C3CCCCC3)cc2c1=O`: the “activity change, negative = cytotoxicity” value is inactive: -20.6%.

For the compound `COc1cc(NC(=O)c2c(C)oc3ncnc(N4CCCCC4)c23)cc(OC)c1`, the “activity change, negative = cytotoxicity” value is inactive: -12%.

With `COc1ccc(/C=C(/C#N)c2nc(-c3ccc(Br)cc3)cs2)cc1`, the “activity change, negative = cytotoxicity” value is inactive: 14.1%.

For `Cc1cc(Br)ccc1NC(=O)C1CCN(S(=O)(=O)c2ccc(Br)s2)CC1`, the “activity change, negative = cytotoxicity” value was inactive: 22.5%.

In the case of `CCOc1ccc(NC(=O)CCS(=O)(=O)c2ccc(Br)cc2)cc1`, the “activity change, negative = cytotoxicity” value is inactive: -12%.

For `COc1ccc(NC(=O)c2c(C)oc3ccc(O)c(CN4CCN(Cc5ccccc5)CC4)c23)cc1`, the “activity change, negative = cytotoxicity” value was inactive: -4.34%.

For the compound `Cc1cccc(Cn2c(SCc3ccc(C(=O)NC4CCCCC4)cc3)nc3ccncc32)c1`, the “activity change, negative = cytotoxicity” value was inactive: -1.52%.

For `CCC(=O)N1CCc2cc(S(=O)(=O)CCC(=O)NCc3cccc(OC)c3)ccc21`, the “activity change, negative = cytotoxicity” value was inactive: -0.351%.

Regarding `COc1cccc(CNC(=O)c2ccc(NC(=O)N3CC(C)Sc4ccccc43)cc2)c1` (stereo not drawn), the “activity change, negative = cytotoxicity” value is inactive: 4.74%.

For the compound `Cc1ccccc1Nc1c(-c2ccncc2)nc2ccc(Cl)cn12`, the “activity change, negative = cytotoxicity” value is inactive: -8.4%.

`O=C(c1ccc(CS(=O)c2ccccc2Cl)o1)N1CCN(c2cccc(Cl)c2)CC1` (stereo not drawn): the “activity change, negative = cytotoxicity” value is inactive: -8.8%.

With `CC(CNC(=O)CCCn1c(=O)c2cccn2c2cccnc21)c1ccccc1` (stereo not drawn), the “activity change, negative = cytotoxicity” value was inactive: -9.03%.

Consider `Cc1ccc2nc(Cl)c3cc(C(=O)NC4CCCCCC4)sc3c2c1`, for which the “activity change, negative = cytotoxicity” value is inactive: 7.32%.

Turning to `CCC1CN(C(=O)Nc2ccc(C(=O)O)cc2)c2cc(Cl)ccc2O1` (stereo not drawn), the “activity change, negative = cytotoxicity” value was inactive: -7.59%.

`O=C(CSc1cn(CC(=O)N2CCCC2)c2ccccc12)Nc1cc(C(F)(F)F)ccc1Cl`: the “activity change, negative = cytotoxicity” value was inactive: -26.3%.

`COc1cc(NC(=O)c2ccc(NC(=O)N3CCSc4ncccc43)cc2)cc(OC)c1`: the “activity change, negative = cytotoxicity” value was inactive: 3.75%.

Turning to `CC(C)(C)OC(=O)N1CCC(c2c(C(=O)N3CCN(C(=O)c4ccco4)CC3)cnn2-c2ccccc2)CC1`, the “activity change, negative = cytotoxicity” value is inactive: 1.87%.

Regarding `Cc1cccc(CCNC(=O)C2CCCN(S(=O)(=O)c3ccc4c(c3)oc(=O)n4C)C2)c1` (stereo not drawn), the “activity change, negative = cytotoxicity” value was inactive: 0.951%.

Turning to `CCOc1cccc2sc(N(CCN(CC)CC)C(=O)c3ccco3)nc12`, the “activity change, negative = cytotoxicity” value is inactive: 7.12%.

Turning to `Cc1cccc(C(=O)NCC(=O)OCc2cc(=O)n3nc(C4CC4)sc3n2)c1`, the “activity change, negative = cytotoxicity” value was inactive: 2.09%.

`Cc1cc(C)cc(NC(=O)CCc2c(C)nc3c4cccnc4nn3c2C)c1`: the “activity change, negative = cytotoxicity” value was inactive: 13.6%.

For the compound `CCOC(=O)Cn1c(=O)n(C2CCCCC2)c2nc(-c3cccc(OC)c3)nc(C(N)=O)c21`, the “activity change, negative = cytotoxicity” value was inactive: -5.13%.

In the case of `Cc1cccc(NC(=O)Cc2csc(COc3cccc(C)c3)n2)c1`, the “activity change, negative = cytotoxicity” value is inactive: -0.145%.

In the case of `Cc1ccc(CNC(=O)Cn2c(=O)n(-c3cccc(Cl)c3)c(=O)c3sc4ccccc4c32)cc1`, the “activity change, negative = cytotoxicity” value is inactive: 5.38%.

`CCOc1ccc(-c2cc3nc(C4CCN(C(=O)OC(C)(C)C)CC4)c(C(=O)Nc4ccc(C)cc4C)cn3n2)cc1`: the “activity change, negative = cytotoxicity” value was inactive: 11.5%.

In the case of `COc1ccccc1N1CCN(C(=O)c2cc3ccc4ccc(C)[nH]c4c3n2)CC1`, the “activity change, negative = cytotoxicity” value was inactive: -27.1%.

Regarding `CCOC(=O)C1CCCN(S(=O)(=O)c2csc(C(N)=O)c2)C1` (stereo not drawn), the “activity change, negative = cytotoxicity” value was inactive: -0.797%.

As to `CCc1nn2c(=O)c(S(=O)(=O)Nc3cccc(F)c3)c(C)nc2s1`, the “activity change, negative = cytotoxicity” value is inactive: 19.5%.

Take `CCC(Sc1nc2nccnc2c(=O)n1Cc1ccc(C)cc1)C(=O)NC1CCCCC1` (stereo not drawn): the “activity change, negative = cytotoxicity” value is inactive: -4.98%.

Consider `CCOc1ccc(S(=O)(=O)Nc2ccc(-c3ccc(OC)nn3)cc2)cc1`, for which the “activity change, negative = cytotoxicity” value was inactive: 12.2%.

For the compound `Cc1cccc(-n2c(SCC(=O)c3ccccc3)nnc2-c2ccc(Br)cc2)c1`, the “activity change, negative = cytotoxicity” value was inactive: -1.45%.

As to `Cc1c2cnn(-c3ccccc3)c(=O)c2c(C)n1CC(=O)NCc1ccccc1`, the “activity change, negative = cytotoxicity” value was inactive: -8.98%.

Regarding `CCCNC(=O)N1CCN(S(=O)(=O)c2ccc3c(ccn3C)c2)CC1`, the “activity change, negative = cytotoxicity” value is inactive: -1.76%.

Consider `COc1cc2c(c(OC)c1)C(c1cc(OC)c(OC)c(OC)c1)CC(=O)N2` (stereo not drawn), for which the “activity change, negative = cytotoxicity” value is inactive: 24.7%.

Regarding `CCn1c(C)c(C)c2cc(C(=O)NCc3cccc(C)c3)ccc21`, the “activity change, negative = cytotoxicity” value was inactive: -4.12%.

In the case of `COc1ccc(NC(=O)/C=C\C(=O)N(c2ccc(C(C)C)cc2)C(C(=O)NCc2ccco2)c2ccc(F)cc2)cc1` (stereo not drawn), the “activity change, negative = cytotoxicity” value is inactive: -2.71%.
